Data: patent US8569292B2, “Cyclic inhibitors of 11β-hydroxysteroid dehydrogenase 1” (Vitae Pharmaceuticals, Inc., priority 2008, dated 2013)
At least one structure is not confirmed: it was looked up by name or label, or the drawing left a doubt.

The compounds below were run against 11β-HSD1 (Homo sapiens, UniProt P28845) (assay: Biological Test Example 4: microsomal 11β-HSD1 in the presence of 50% human plasma). Details: IC50 in Test Example 4 divided by IC50 in Test Example 1.
UniProt P28845, sequence (P28845 whole entry): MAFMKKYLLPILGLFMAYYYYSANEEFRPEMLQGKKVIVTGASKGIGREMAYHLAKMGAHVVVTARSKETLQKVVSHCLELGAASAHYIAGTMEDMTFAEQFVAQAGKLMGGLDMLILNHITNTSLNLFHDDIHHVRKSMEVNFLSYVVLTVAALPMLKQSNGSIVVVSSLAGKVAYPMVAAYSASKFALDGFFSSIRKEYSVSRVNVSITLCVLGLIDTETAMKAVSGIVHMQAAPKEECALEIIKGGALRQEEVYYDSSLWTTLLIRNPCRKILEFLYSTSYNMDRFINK

Row | SMILES | Shift
1 | Cc1cc(-c2ccc([C@H](C)N3CC[C@](CCO)(c4ccccc4)OC3=O)cc2)ccn1 [EXAMPLE 96, (S)-6-(2-hydroxyethyl)-3-((S)-1-(4-(2-methylpyridin-4-yl)phenyl)ethyl)-6-phenyl-1,3-oxazinan-2-one] | 7.9
2 | C[C@@H](c1ccc(-c2cc[nH]n2)cc1)N1CC[C@](CCCO)(c2ccccc2)OC1=O [EXAMPLE 45, (R)-3-((S)-1-(4-(1H-pyrazol-3-yl)phenyl)ethyl)-6-(3-hydroxypropyl)-6-phenyl-1,3-oxazinan-2-one] | 4.6
3 | C[C@@H](c1ccc(-c2ncccc2C#N)cc1)N1CC[C@](CC(C)(C)O)(c2ccccc2)OC1=O [EXAMPLE 165, 2-(4-((S)-1-((S)-6-(2-hydroxy-2-methylpropyl)-2-oxo-6-phenyl-1,3-oxazinan-3-yl)ethyl)phenyl)nicotinonitrile] | 17.4
4 | C[C@@H](c1ccc(-c2ccccn2)cc1)N1CC[C@](CC(C)(C)O)(c2ccc(F)cc2)OC1=O [EXAMPLE 58, (S)-6-(4-fluorophenyl)-6-(2-hydroxy-2-methylpropyl)-3-((S)-1-(4-(pyridin-2-yl)phenyl)ethyl)-1,3-oxazinan-2-one] | 9.0
5 | C[C@@H](c1ccc(-c2ccc(C(=O)NC3CC3)nn2)cc1)N1CC[C@](CC(C)(C)O)(c2ccccc2)OC1=O [EXAMPLE 10, N-cyclopropyl-6-(4-((S)-1-((S)-6-(2-hydroxy-2-methylpropyl)-2-oxo-6-phenyl-1,3-oxazinan-3-yl)ethyl)phenyl)pyridazine-3-carboxamide] | 3.1
6 | C[C@@H](c1ccc(-c2ncc(F)cn2)cc1)N1CC[C@](CC(C)(C)O)(c2ccccc2)OC1=O [EXAMPLE 13, (S)-3-((S)-1-(4-(5-fluoropyrimidin-2-yl)phenyl)ethyl)-6-(2-hydroxy-2-methylpropyl)-6-phenyl-1,3-oxazinan-2-one] | 5.8
7 | C[C@@H](c1ccc(-c2cccnc2)cc1)N1CC[C@](CCCNS(C)(=O)=O)(c2ccccc2)OC1=O [EXAMPLE 91, N-(3-((R)-2-oxo-6-phenyl-3-((S)-1-(4-(pyridin-3-yl)phenyl)ethyl)-1,3-oxazinan-6-yl)propyl)methanesulfonamide] | 9.9
8 | C[C@@H](c1ccc(-c2ccccn2)cc1)N1CC[C@](CCO)(c2ccccc2)OC1=O [EXAMPLE 85, (S)-6-(2-hydroxyethyl)-6-phenyl-3-((S)-1-(4-(pyridin-2-yl)phenyl)ethyl)-1,3-oxazinan-2-one] | 13.6
9 | C[C@@H](c1ccc(-c2ccc(C#N)cn2)cc1)N1CC[C@](CC(C)(C)O)(c2ccc(F)cc2)OC1=O [EXAMPLE 111, 6-(4-((S)-1-((S)-6-(4-fluorophenyl)-6-(2-hydroxy-2-methylpropyl)-2-oxo-1,3-oxazinan-3-yl)ethyl)phenyl)nicotinonitrile] | 8.9
10 | C[C@@H](c1ccc(-c2ccc(C(=O)N(C)C)cn2)cc1)N1CC[C@](CC(C)(C)O)(c2ccccc2)OC1=O [EXAMPLE 156, 6-(4-((S)-1-((S)-6-(2-hydroxy-2-methylpropyl)-2-oxo-6-phenyl-1,3-oxazinan-3-yl)ethyl)phenyl)-N,N-dimethylnicotinamide] | 9.2
11 | C[C@@H](c1ccc(-c2ccc(C(=O)NC3CC3)cn2)cc1)N1CC[C@](CC(C)(C)O)(c2ccccc2)OC1=O [EXAMPLE 161, N-cyclopropyl-6-(4-((S)-1-((S)-6-(2-hydroxy-2-methylpropyl)-2-oxo-6-phenyl-1,3-oxazinan-3-yl)ethyl)phenyl)nicotinamide] | 3.7
12 | C[C@@H](c1ccc(-c2cnccn2)cc1)N1CC[C@](CC(C)(C)O)(c2ccccc2)OC1=O [EXAMPLE 130, (S)-6-(2-hydroxy-2-methylpropyl)-6-phenyl-3-((S)-1-(4-(pyrazin-2-yl)phenyl)ethyl)-1,3-oxazinan-2-one] | 8.8
13 | Cc1cc(-c2ccc([C@H](C)N3CC[C@](CC(C)(C)O)(c4ccccc4)OC3=O)cc2)cc(C)[n+]1[O-] [EXAMPLE 121, 4-(4-((S)-1-((S)-6-(2-hydroxy-2-methylpropyl)-2-oxo-6-phenyl-1,3-oxazinan-3-yl)ethyl)phenyl)-2,6-dimethylpyridine 1-oxide] | 3.3
14 | C[C@@H](c1ccc(-c2ccncn2)cc1)N1CC[C@](CCCO)(c2ccc(F)cc2)OC1=O [EXAMPLE 128, (R)-6-(4-fluorophenyl)-6-(3-hydroxypropyl)-3-((S)-1-(4-(pyrimidin-4-yl)phenyl)ethyl)-1,3-oxazinan-2-one] | 7.8
15 | C[C@@H](c1ccc(-c2ncc(C(=O)N(C)C)s2)cc1)N1CC[C@](CC(C)(C)O)(c2ccccc2)OC1=O [EXAMPLE 158, 2-(4-((S)-1-((S)-6-(2-hydroxy-2-methylpropyl)-2-oxo-6-phenyl-1,3-oxazinan-3-yl)ethyl)phenyl)-N,N-dimethylthiazole-5-carboxamide] | 6.2
16 | COc1cc(-c2ccc([C@H](C)N3CC[C@](CCCO)(c4ccc(F)cc4)OC3=O)cc2)ccn1 [EXAMPLE 147, (R)-6-(4-fluorophenyl)-6-(3-hydroxypropyl)-3-((S)-1-(4-(2-methoxypyridin-4-yl)phenyl)ethyl)-1,3-oxazinan-2-one] | 9.3
17 | C[C@@H](c1ccc(-c2ccc(C(=O)NC(C)(C)C)cn2)cc1)N1CC[C@](CC(C)(C)O)(c2ccccc2)OC1=O [EXAMPLE 163, N-tert-butyl-6-(4-((S)-1-((S)-6-(2-hydroxy-2-methylpropyl)-2-oxo-6-phenyl-1,3-oxazinan-3-yl)ethyl)phenyl)nicotinamide] | 3.8
18 | C[C@@H](c1ccc(-c2ccncn2)cc1)N1CC[C@](CC(C)(C)O)(c2ccccc2)OC1=O [EXAMPLE 131, (S)-6-(2-hydroxy-2-methylpropyl)-6-phenyl-3-((S)-1-(4-(pyrimidin-4-yl)phenyl)ethyl)-1,3-oxazinan-2-one] | 2.3
19 | Cc1nnc(-c2ccc([C@H](C)N3CC[C@](CC(C)(C)O)(c4ccccc4)OC3=O)cc2)s1 [EXAMPLE 172, (S)-6-(2-Hydroxy-2-methyl-propyl)-3-{(S)-1-[4-(5-methyl-[1,3,4]thiadiazol-2-yl)-phenyl]-ethyl}-6-phenyl-[1,3]oxazinan-2-one] | 3.2
20 | C[C@@H](c1ccc(-c2nc(C(=O)NC(C)(C)C)cs2)cc1)N1CC[C@](CC(C)(C)O)(c2ccccc2)OC1=O [EXAMPLE 22, N-tert-butyl-2-(4-((S)-1-((S)-6-(2-hydroxy-2-methylpropyl)-2-oxo-6-phenyl-1,3-oxazinan-3-yl)ethyl)phenyl)thiazole-4-carboxamide] | 6.6
21 | C[C@@H](c1ccc(-c2ccc(C(F)(F)F)nc2)cc1)N1CC[C@](CCCO)(c2ccc(F)cc2)OC1=O [EXAMPLE 44, (R)-6-(4-fluorophenyl)-6-(3-hydroxypropyl)-3-((S)-1-(4-(6-(trifluoromethyl)pyridin-3-yl)phenyl)ethyl)-1,3-oxazinan-2-one] | 5.7
22 | C[C@@H](c1ccc(-c2nccs2)cc1)N1CC[C@](CCCO)(c2ccc(F)cc2)OC1=O [EXAMPLE 82, (R)-6-(4-fluorophenyl)-6-(3-hydroxypropyl)-3-((S)-1-(4-(thiazol-2-yl)phenyl)ethyl)-1,3-oxazinan-2-one] | 14.1
